Experimental data taken from the supplement of paper PMC8728848.
Some of the results follow.

Experiments:
Experiment in all cases: glycan array binding signal (z-score within array); higher = stronger binding
Settings in all cases: glycan notation: IUPAC condensed, linker removed
[1] = molecular target: Gal(b1-4)GlcNAc(b1-3)Gal(b1-4)GlcNAc(b1-6)[Gal(b1-3)]GalNAc
Procedure, shortened: (§1)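 Glycan array data came from 3228 arrays in the Consortium for Functional Glycomics database, and only arrays with an available protein sequence were kept. Glycan names were put into IUPAC-condensed notation, and columns mapping to the same glycan were averaged. The binding signal is a within-array Z-score, averaged across arrays of one protein sequence run at different concentrations or buffers and across linkers. A negative Z-score can be read as non-binding.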

[2] = molecular target: Gal(b1-4)GlcNAc(b1-3)Gal(b1-4)[Fuc(a1-3)]GlcNAc(b1-3)Gal(b1-4)[Fuc(a1-3)]GlcNAc
Procedure, shortened: as §1

[3] = molecular target: Gal(b1-4)GlcNAc(b1-3)GalNAc
Procedure, shortened: as §1

[4] = molecular target: Gal(b1-4)GlcNAc(b1-3)[Fuc(a1-3)GlcNAc(b1-6)]Gal(b1-4)Glc
Procedure, shortened: as §1

[5] = molecular target: Gal(b1-4)GlcNAc(b1-3)[Gal(b1-4)GlcNAc(b1-6)]Gal(b1-4)GlcNAc
Procedure, shortened: as §1

[6] = molecular target: Gal(b1-4)GlcNAc(b1-3)[GlcNAc(b1-6)]Gal(b1-4)GlcNAc
Procedure, shortened: as §1

[7] = molecular target: Gal(b1-4)GlcNAc(b1-6)Gal(b1-4)GlcNAc
Procedure, shortened: as §1

[8] = molecular target: Gal(b1-4)GlcNAc(b1-6)GalNAc
Procedure, shortened: as §1

[9] = molecular target: Gal(b1-4)GlcNAc(b1-6)[Gal(b1-3)]GalNAc
Procedure, shortened: as §1

[10] = molecular target: Gal(b1-4)GlcNAc(b1-6)[Gal(b1-4)GlcNAc(b1-3)]GalNAc
Procedure, shortened: as §1

Gal(b1-4)GlcNAc6P = molecular target: Gal(b1-4)GlcNAc6P
Procedure, shortened: as §1

Gal(b1-6)Gal = molecular target: Gal(b1-6)Gal
Procedure, shortened: as §1

Gal3S(b1-3)GalNAc = molecular target: Gal3S(b1-3)GalNAc
Procedure, shortened: as §1

Gal3S(b1-3)GlcNAc = molecular target: Gal3S(b1-3)GlcNAc
Procedure, shortened: as §1

[11] = molecular target: Gal3S(b1-3)[Fuc(a1-4)]GlcNAc
Procedure, shortened: as §1

Gal3S(b1-4)Glc = molecular target: Gal3S(b1-4)Glc
Procedure, shortened: as §1

Gal3S(b1-4)Glc6S = molecular target: Gal3S(b1-4)Glc6S
Procedure, shortened: as §1

Gal3S(b1-4)GlcNAc = molecular target: Gal3S(b1-4)GlcNAc
Procedure, shortened: as §1

[12] = molecular target: Gal3S(b1-4)[Fuc(a1-3)]Glc6S
Procedure, shortened: as §1

[13] = molecular target: Gal3S(b1-4)[Fuc(a1-3)]GlcNAc
Procedure, shortened: as §1

[14] = molecular target: Gal3S(b1-4)[Fuc(a1-3)]GlcNAc6S
Procedure, shortened: as §1

Gal3S4S(b1-4)GlcNAc = molecular target: Gal3S4S(b1-4)GlcNAc
Procedure, shortened: as §1

Gal3S6S(b1-4)GlcNAc = molecular target: Gal3S6S(b1-4)GlcNAc
Procedure, shortened: as §1

Gal3S6S(b1-4)GlcNAc6S = molecular target: Gal3S6S(b1-4)GlcNAc6S
Procedure, shortened: as §1

Gal4S(b1-4)GlcNAc = molecular target: Gal4S(b1-4)GlcNAc
Procedure, shortened: as §1

Gal4S6S(b1-4)GlcNAc = molecular target: Gal4S6S(b1-4)GlcNAc
Procedure, shortened: as §1

Gal6P(b1-4)GlcNAc = molecular target: Gal6P(b1-4)GlcNAc
Procedure, shortened: as §1

Gal6S(b1-3)GlcNAc = molecular target: Gal6S(b1-3)GlcNAc
Procedure, shortened: as §1

Gal6S(b1-3)GlcNAc6S = molecular target: Gal6S(b1-3)GlcNAc6S
Procedure, shortened: as §1

Gal6S(b1-4)Glc = molecular target: Gal6S(b1-4)Glc
Procedure, shortened: as §1

Gal6S(b1-4)Glc6S = molecular target: Gal6S(b1-4)Glc6S
Procedure, shortened: as §1

Gal6S(b1-4)GlcNAc = molecular target: Gal6S(b1-4)GlcNAc
Procedure, shortened: as §1

Gal6S(b1-4)GlcNAc6S = molecular target: Gal6S(b1-4)GlcNAc6S
Procedure, shortened: as §1

GalNAc(a1-3)Gal = molecular target: GalNAc(a1-3)Gal
Procedure, shortened: as §1

GalNAc(a1-3)GalNAc = molecular target: GalNAc(a1-3)GalNAc
Procedure, shortened: as §1

[15] = molecular target: GalNAc(a1-3)GalNAc(b1-3)Gal(a1-4)Gal(b1-4)Glc
Procedure, shortened: as §1

[16] = molecular target: GalNAc(a1-3)GalNAc(b1-3)Gal(a1-4)Gal(b1-4)GlcNAc
Procedure, shortened: as §1

GalNAc(b1-3)Gal = molecular target: GalNAc(b1-3)Gal
Procedure, shortened: as §1

[17] = molecular target: GalNAc(b1-3)Gal(a1-4)Gal(b1-4)GlcNAc
Procedure, shortened: as §1

[18] = molecular target: GalNAc(b1-3)Gal(a1-4)Gal(b1-4)GlcNAc(b1-3)Gal(b1-4)Glc
Procedure, shortened: as §1

[19] = molecular target: GalNAc(b1-3)Gal(a1-6)Gal(b1-4)Glc
Procedure, shortened: as §1

GalNAc(b1-3)GalNAc = molecular target: GalNAc(b1-3)GalNAc
Procedure, shortened: as §1

GalNAc(b1-3)GlcNAc = molecular target: GalNAc(b1-3)GlcNAc
Procedure, shortened: as §1

GalNAc(b1-4)Gal(b1-4)Glc = molecular target: GalNAc(b1-4)Gal(b1-4)Glc
Procedure, shortened: as §1

GalNAc(b1-4)GlcNAc = molecular target: GalNAc(b1-4)GlcNAc
Procedure, shortened: as §1

B1: PX9937A-bvu-521-23-521 (Bacteroides vulgatus) (protein)
chain: LDLAPEDYYGAGNFWKEASQPKAFMLGLHAQLRSYYDMFYTLGELRGGTQRVGTSSLNTSLNYADIRSQNISEDIPGISNWNGLYSPIMQVNHFIQEVENGCTFLDDATRSRYLGQAYGMRALYYFMLYRTFGGVPLITKVDILDGKPSADKFYVERATPEATMEFIKADINKSENYFGNNTSFDAYDWSRYATLMLKAEIYMWAAKVSITGFTATGATDLQTAKTALSGIIGHFELMDNFASIFSCDNKKNTEIIFAMPFIEGEASNDGGRFLYQDAVFLGQAYGRNGKVIEKDTLNLKGTGGVFRDEYTEDFWKTFKEGDSRRDATFMEYYMKNDNGTLSEFGCVMKKRIGTINSNDNRIYISDIPVYRYADALLMMAEIENGLNNPCASYINEVRKRAYGDTFEENKYTEGSYAENELAILQERDKEFVSEGKRWFDVLRMHDASGRSLVFSANANYPGTNPILGTEEAYKMLWPVNIGTLNVNPLLTQTPGYGKK
glycan array binding signal (z-score) [1]: -0.067 | glycan array binding signal (z-score) [2]: -0.554 | glycan array binding signal (z-score) [3]: -0.456 | glycan array binding signal (z-score) [4]: -0.299 | glycan array binding signal (z-score) [5]: -0.224 | glycan array binding signal (z-score) [6]: -0.325 | glycan array binding signal (z-score) [7]: 0.184 | glycan array binding signal (z-score) [8]: -0.363 | glycan array binding signal (z-score) [9]: 6.72 | glycan array binding signal (z-score) [10]: 0.459 | glycan array binding signal (z-score) (Gal(b1-4)GlcNAc6P): 0.719 | glycan array binding signal (z-score) (Gal(b1-6)Gal): 0.277 | glycan array binding signal (z-score) (Gal3S(b1-3)GalNAc): -0.408 | glycan array binding signal (z-score) (Gal3S(b1-3)GlcNAc): -0.049 | glycan array binding signal (z-score) [11]: -0.211 | glycan array binding signal (z-score) (Gal3S(b1-4)Glc): -0.237 | glycan array binding signal (z-score) (Gal3S(b1-4)Glc6S): -0.188 | glycan array binding signal (z-score) (Gal3S(b1-4)GlcNAc): -0.002 | glycan array binding signal (z-score) [12]: 0.244 | glycan array binding signal (z-score) [13]: -0.201 | glycan array binding signal (z-score) [14]: -0.018 | glycan array binding signal (z-score) (Gal3S4S(b1-4)GlcNAc): -0.185 | glycan array binding signal (z-score) (Gal3S6S(b1-4)GlcNAc): -0.124 | glycan array binding signal (z-score) (Gal3S6S(b1-4)GlcNAc6S): 0.389 | glycan array binding signal (z-score) (Gal4S(b1-4)GlcNAc): -0.63 | glycan array binding signal (z-score) (Gal4S6S(b1-4)GlcNAc): -0.264 | glycan array binding signal (z-score) (Gal6P(b1-4)GlcNAc): -0.348 | glycan array binding signal (z-score) (Gal6S(b1-3)GlcNAc): -0.451 | glycan array binding signal (z-score) (Gal6S(b1-3)GlcNAc6S): -0.386 | glycan array binding signal (z-score) (Gal6S(b1-4)Glc): 0.302 | glycan array binding signal (z-score) (Gal6S(b1-4)Glc6S): -0.163 | glycan array binding signal (z-score) (Gal6S(b1-4)GlcNAc): -0.118 | glycan array binding signal (z-score) (Gal6S(b1-4)GlcNAc6S): -0.378 | glycan array binding signal (z-score) (GalNAc(a1-3)Gal): -0.599 | glycan array binding signal (z-score) (GalNAc(a1-3)GalNAc): -0.63 | glycan array binding signal (z-score) [15]: 0.484 | glycan array binding signal (z-score) [16]: -0.318 | glycan array binding signal (z-score) (GalNAc(b1-3)Gal): -0.186 | glycan array binding signal (z-score) [17]: 0.47 | glycan array binding signal (z-score) [18]: -0.13 | glycan array binding signal (z-score) [19]: 0.139 | glycan array binding signal (z-score) (GalNAc(b1-3)GalNAc): -0.078 | glycan array binding signal (z-score) (GalNAc(b1-3)GlcNAc): -0.413 | glycan array binding signal (z-score) (GalNAc(b1-4)Gal(b1-4)Glc): -0.542 | glycan array binding signal (z-score) (GalNAc(b1-4)GlcNAc): 2.94
